In patent US20240016784A1, “Y BOX BINDING PROTEIN 1 INHIBITORS” (Oregon Health & Science University, priority 2020, published 2024) one finds IC50 data, which are given here for one molecule.

The subject of this assay is OVCAR8 scrambled control (SC) cells. The assay can be described thus: Cell viability assay, transduced OVCAR8 cells. Particulars: Homo sapiens, OVCAR-8, read-out: IC50 (cell viability).

Molecules are shown by their SMILES.

By IC50 is commonly meant the concentration at which inhibition is half-maximal. Regarding `O=C1OCC2=C1C(c1cccc(F)c1)c1cc3c(cc1N2CCO)OCO3` (stereo not shown) [SU056, 9-(3-fluorophenyl)-5-(2-hydroxyethyl)-6,9-dihydro-[1,3]dioxolo[4,5-g]furo[3,4-b]quinolin-8(5H)-one], the concentration for half-maximal inhibition (IC50) came to 3.54 µM.
